The other results are listed elsewhere or left out. The list includes weakly bound sequences.
biological target: MaxL homodimer (UniProt P61244); experiment: universal protein-binding microarray (PBM); conditions: PBS-based mixture, 10 nM His-tagged protein dimer, 2% milk, 200 ng/uL BSA, 50 ng/uL salmon testes DNA, 0.02% TX-100; detection with Alexa 488 anti-His …; high values mean tight binding; most listed sequences are background and not binding sites; double strand, one strand shown
UniProt P61244, sequence (P61244 whole entry): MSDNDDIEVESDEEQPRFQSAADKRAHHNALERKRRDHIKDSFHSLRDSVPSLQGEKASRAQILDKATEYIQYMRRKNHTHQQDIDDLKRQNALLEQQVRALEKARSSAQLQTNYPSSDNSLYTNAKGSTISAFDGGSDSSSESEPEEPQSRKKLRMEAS

Sequence	binding signal (normalized occupancy)
AACACAAC	0.0785
GCCGAGAC	0.07
GTCTTTCA	0.0748
GTAAGTAC	0.0781
AAGGATGA	0.0818
ATTGGACA	0.0763
AATAGGTG	0.0788
CCCGTACC	0.0725
GTTGGATA	0.0817
ATCCCCTG	0.0825
ATACTGTA	0.084
GAGACCCC	0.0771
CAGAATGC	0.0712
TAGCCGGA	0.0671
ACCGACTC	0.0705
TAGCACTA	0.0738
CACTGATA	0.0767
AAGTTCGT	0.0716
CAGACTCA	0.0702
GGCAAACA	0.078
CAAAGGTG	0.0766
ACATTCCA	0.0796
AGTGCAAC	0.0732
ACAATAAT	0.0764
CCCGATTC	0.0781

Sequence	binding signal (normalized occupancy)
CCCCCTTC	0.0788
GAATGAAA	0.0714
ACGACAAT	0.0733
GATAGAGC	0.0753
AGGCCTCA	0.0762
GATGATCA	0.077
CTCTTAGA	0.0693
AGCCACAC	0.082
AGTGCGCC	0.0735
CTCCACCC	0.0759
CACCCACC	0.0828
AGTCTAGC	0.0741
CCGTAGCG	0.066
CTGGGTAC	0.0731
GATTTTAC	0.08
TCAGTGAA	0.0721
AGGTTCGC	0.0729
CCGTGGGC	0.0706
ACACAGGT	0.0791
GCTCAGAA	0.0705
AGAGTTCG	0.0724
AGTAGAAG	0.0704
ACCCCGTA	0.0818
ACTTGCAG	0.0753
ACAACTAA	0.0755

Sequence	binding signal (normalized occupancy)
AAGAAAAG	0.0711
CGCTCCGA	0.0666
CTAGTCGA	0.0739
CCCTCGTA	0.0771
CATGCCCG	0.0842
AATTCGAT	0.0739
AACGGTAT	0.0763
AGGCAAGG	0.0749
ATGGGCAG	0.0789
ATAATCCG	0.0762
AGCCAGGC	0.0741
CTCCCATA	0.0803
CACTTATA	0.0766
AGAAAAAT	0.0708
AACCAGAG	0.0706
CTGAGGGA	0.0699
CCCTGCTC	0.0692
CCGGTCTA	0.0685
GTATACAC	0.0823
GGCGACAA	0.0667
CAGGACCC	0.0681
ACATTGGC	0.08
CCGAAGAC	0.068
CAGGGATA	0.0756
TCTTAAGA	0.0691

Sequence	binding signal (normalized occupancy)
CCGGAGAG	0.0728
AGGCCCAG	0.0691
TGAACAAA	0.075
AAGACATC	0.0756
CCTCCTCG	0.0722
AGGCAATG	0.0753
GCTACCAC	0.0792
CACCCAGC	0.0745
CCCTATCC	0.0805
ACGCCTTG	0.0774
CACTACCC	0.0784
GTATCCCA	0.0826
ACTGTCCG	0.071
GGAGTCCC	0.0706
CAATCACC	0.0797
ACAGTGAG	0.0743
CGAATGCG	0.0744
CTAAGTAC	0.0754
CAGAAGCC	0.0722
CTTTCCCA	0.0759
CTTATTTC	0.0739
ATCCTCTA	0.0745
AACATTCG	0.0773
ACAAGGGC	0.0747
TAATATCA	0.0788

Sequence	binding signal (normalized occupancy)
CATACTCA	0.0804
GTCCCGAA	0.0666
CGGGCCAA	0.0667
CTGTATAC	0.0794
CCTCCCGA	0.0695
CGTGTGGC	0.0953
CTGTGAAA	0.0728
GAGTAGAC	0.078
AAGCACGC	0.0949
AGGGGGCA	0.075
CGGATTAA	0.0759
CCTACTGC	0.0676
CAAACTAA	0.0779
ACAGGCAC	0.0752
ACTCGAGC	0.0729
ATGAGCCA	0.0853
CCAAATTA	0.0762
ATAGACCC	0.0762
ATATTGAG	0.0778
GCTTCCTA	0.0729
AGGTGTTG	0.0828
CACGTTTA	0.0986
ATCGGTTA	0.0691
ACCTATCT	0.0788
AGTACACC	0.076

Sequence	binding signal (normalized occupancy)
CCTTGGAG	0.0694
CAGCCAGA	0.0648
ACAACTCA	0.0775
AGTCCTCC	0.072
TAACCACA	0.0809
GAATTCGA	0.0745
TAACTCCA	0.0737
CTGAGCAG	0.0751
ATAACACG	0.0958
CTTCGAAA	0.0722
GGGCATAA	0.0796
AGGGACCG	0.0665
ATTAATGC	0.0728
CATTCGGA	0.0783
ATTCGCAG	0.0756
TTGAGCAA	0.0701
GGCTACCA	0.0733
ATTCGTCC	0.0739
ACATGCCA	0.0967
ACTGGTGA	0.0744
CGATTAAA	0.0731
CTTCCATA	0.0776
AAACTCTG	0.0674
GCACTCCC	0.078
CCTCCTAA	0.0722

Sequence	binding signal (normalized occupancy)
GACACGCC	0.0849
GAGGTAGA	0.0721
ATACAATA	0.0777
AAAGATCG	0.0722
CACGGTAC	0.0749
GCGATCGA	0.0695
ATAAGAAG	0.0732
GTAAAGGA	0.0762
AGGCCATA	0.0817
CACTAAGA	0.0711
GCGGAGCC	0.0664
ACCTCCAA	0.0778
ACCCCATC	0.0823
CTGTCGTA	0.0747
ATAGGTTC	0.0754
CACCGGAA	0.0719
ATGTTCGA	0.0802
ACGGGAGC	0.0675
AAGTAGTG	0.0752
AAGTGGCA	0.0762
GGGAGCCC	0.0687
AAAAAGCG	0.0696

From article PMC4242493
